{"source": "PubChem BioAssay AID1240", "about": "(Sanford-Burnham Center for Chemical Genomics, 2008)", "note": "About 800 (1.6%) of roughly 50,000 compounds showed an effect of 50% or more. The list shows a part of the results."}
{"molecular_target": "Bcl-2-like protein 10 (Homo sapiens) (UniProt Q9HD36)", "sequence (Q9HD36 whole entry, looked up)": "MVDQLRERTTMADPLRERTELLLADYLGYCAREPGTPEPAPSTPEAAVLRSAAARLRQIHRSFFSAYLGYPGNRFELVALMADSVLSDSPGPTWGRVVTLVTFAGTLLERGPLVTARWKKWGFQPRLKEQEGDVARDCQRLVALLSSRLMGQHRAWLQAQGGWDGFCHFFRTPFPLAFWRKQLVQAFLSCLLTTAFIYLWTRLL", "experiment": "TR3 peptide-Bcl-B binding displacers, biochemical primary FP assay, phenotype converters (AID 1240);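 note: 0% = Bcl-B with tracer peptide and DMSO and 100% = tracer peptide lacking Bcl-B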", "settings": "GST-Bcl-B / FITC-TR3 peptide fluorescence polarization; stronger effect = higher value; compound at 3.75 mg/L", "units": {"displacement": "%"}}
{"smiles": "Cc1ccc(/C=C(\\NC(=O)c2ccc(C)cc2)C(=O)NC(C)C)cc1", "displacement": 8.9}
{"smiles": "COc1ccc(OC)c(N(CC(N)=O)S(C)(=O)=O)c1", "displacement": 10.8}
{"smiles": "O=C(NCCCCOc1ccccc1)C(O)(c1ccc(F)cc1)c1ccc(F)cc1", "displacement": -5.5}
{"smiles": "CCOC(=O)c1ccc(NC(=O)CCNC(=O)c2ccccc2NC(=O)c2ccc(OC)cc2)cc1", "displacement": 13.1}
{"smiles": "Clc1ccc(N2CCN(/N=C\\c3cccs3)CC2)cc1", "displacement": -6}
{"smiles": "C=CCN1C(=O)/C(=C\\c2ccc(-c3ccc(Br)cc3)o2)C(=O)NC1=S", "displacement": 1.1}
{"smiles": "CCOC(=O)C1=C(CC)NC2=C(C(=O)CCC2)C1c1ccc(-c2ccccc2)cc1", "note": "(stereo not given)", "displacement": -4.9}
{"smiles": "O=C(O)c1ccccc1-c1ccc(/C=N/n2cnnc2)o1", "displacement": 4.2}
{"smiles": "COc1ccccc1NC(=O)C(=O)NCc1ccco1", "displacement": -4.7}
{"smiles": "CCOc1ccc(-c2cc(C)n3nc(C(=O)Nc4cc(C)ccc4O)cc3n2)cc1", "displacement": 1.1}
{"smiles": "COc1cc([N+](=O)[O-])ccc1NC(=O)Cn1cnc2c1c(=O)n(C)c(=O)n2C", "displacement": 10}
{"smiles": "CC1=CC(C)(C)N(CC(=O)c2ccc([N+](=O)[O-])cc2)c2c(C)cccc21", "displacement": -12.3}
{"smiles": "COc1ccc(S(=O)(=O)Nc2ccc(C(N)=O)cc2)cc1", "displacement": 1}
{"smiles": "Cc1ccc(S(=O)(=O)N2CCN(Cc3ccc(Br)cc3)CC2)cc1", "displacement": 11.6}
{"smiles": "CCCOC(=O)c1c(-c2ccc(Cl)c(Cl)c2)csc1N", "displacement": -5.8}
{"smiles": "CC1=NN(C(=O)C(C)(C)C)C(O)(c2ccccc2)C1", "note": "(stereo not given)", "displacement": -7.3}
{"smiles": "COc1cc(NC(=O)c2ccc(Cl)cc2Cl)cc(OC)c1", "displacement": 8.8}
{"smiles": "COCCN=C1NS(=O)(=O)c2ccccc21", "displacement": 13.1}
{"smiles": "O=C(Nc1cccc(Cl)c1)C1CC1(c1ccccc1)c1ccccc1", "note": "(stereo not given)", "displacement": -0.6}
{"smiles": "CCOC(=O)c1sc(N/N=C/c2ccc(O)cc2)nc1C", "displacement": -10.2}
{"smiles": "Cc1ccc(S(=O)(=O)OCP(=O)(c2ccccc2)c2ccccc2)cc1", "displacement": 13.5}
{"smiles": "COC(=O)c1cc(-c2ccc(OC)c(OC)c2)nc2ccccc12", "displacement": -5.5}
{"smiles": "O=C(Nc1cccc(F)c1)c1cccc(F)c1", "displacement": 10.1}
{"smiles": "O=C(CCc1ccccc1)NCc1cccnc1", "displacement": 5.6}
{"smiles": "COc1ccccc1/C=N/NC(=O)c1cc(-c2ccc(C)cc2)n[nH]1", "displacement": -6.7}
{"smiles": "O=C(O)c1ccc(N2C(=O)c3cccc4c([N+](=O)[O-])c(O)cc(c34)C2=O)cc1", "displacement": 39.6}
{"smiles": "CC(=O)c1ccc(NCCC(=O)c2ccccc2)cc1", "displacement": -15.1}
{"smiles": "Cc1cccc(-c2noc(-c3ccc(I)cc3)n2)c1", "displacement": 2.2}
{"smiles": "COc1ccc(C(=O)N2CCN(S(=O)(=O)c3ccccc3)CC2)cc1", "displacement": 19.1}
{"smiles": "COc1cc(Br)c(/C=C2\\C(=O)NC(=O)N(c3cc(C)cc(C)c3)C2=O)cc1OC", "displacement": -0.5}
{"smiles": "O=C(CSc1nc2ccccc2[nH]1)Nc1ccc(Cl)cc1", "displacement": -10}
{"smiles": "Cc1cc(C)cc(CC2CC(=O)N(c3ccc(Br)cc3)C2=O)c1", "note": "(stereo not given)", "displacement": -8}
{"smiles": "O=C(/C=C/Nc1ccc(F)c(Cl)c1)c1ccc(Br)cc1", "displacement": -5.1}
{"smiles": "O=C1NC(=O)N(Cc2ccccc2)C(=O)/C1=C/c1cccs1", "displacement": 15.6}
{"smiles": "COc1ccccc1NC(=O)c1c(N)sc2c1CCCC2", "displacement": 4.5}
{"smiles": "Cc1cc(Br)cc(C)c1NC(=O)C(C)C", "displacement": 18.2}
{"smiles": "COc1ccccc1CNC(=O)c1c(-c2ccccc2Cl)noc1C", "displacement": 4.6}
{"smiles": "CC(=O)N(c1cccc(C)c1)S(=O)(=O)c1ccc(Cl)cc1", "displacement": 6.6}
{"smiles": "CCOC(=O)C(C(C)=O)c1cc(NS(=O)(=O)c2ccc(C)cc2)c2ccccc2c1NS(=O)(=O)c1ccc(C)cc1", "note": "(stereo not given)", "displacement": 78.8}
{"smiles": "COc1ccc(C)cc1NCc1ccc(OC)c(C)c1OC", "displacement": 9.2}
{"smiles": "CCn1c(C)nc2cc(C(=O)Nc3ccccc3)ccc21", "displacement": 14.4}
{"smiles": "COc1ccccc1CNC(=O)c1cccc(F)c1", "displacement": -3.8}
{"smiles": "CC1(C)Nc2ccccc2N(Cc2ccc([N+](=O)[O-])cc2)C1=O", "displacement": -1.7}
{"smiles": "CCOC(=O)COc1cc(C)c2c(=O)c(-c3nc(C)cs3)coc2c1", "displacement": -5.1}
{"smiles": "Cc1ccc(NC(=O)COc2ccc3ccccc3c2)c(C)c1", "displacement": -7.2}
{"smiles": "CCOC(=O)C1=CN(c2ccc(F)cc2)C=C(C(=O)OCC)C1c1cc(OC)c(OC)c(OC)c1", "displacement": -2.3}
{"smiles": "O=C(CN1C(=O)/C(=C/c2cccc(Br)c2)SC1=S)Nc1ccccn1", "displacement": 69}
{"smiles": "COc1ccccc1N1CCN(/N=C\\c2cccnc2)CC1", "displacement": 1.1}
{"smiles": "c1ccc2c(N3CCCCC3)nc(-c3ccncc3)nc2c1", "displacement": 21.4}
{"smiles": "Cc1cccc(C)c1OCC(=O)Nc1ccccc1", "displacement": 15}
{"smiles": "CC(CCCC(C)(C)O)CC1OCCO1", "note": "(stereo not given)", "displacement": 1}
{"smiles": "CC1=C(C)CC2C(=O)N(c3ccc(F)cc3)C(=O)C2C1", "note": "(stereo not given)", "displacement": -2}
{"smiles": "Cc1ccc(OCCCn2ccnc2)c(Cl)c1", "displacement": -12.6}
{"smiles": "CCSc1nc2sc3c(c2c2nncn12)CCN(C)C3", "displacement": 30.6}
{"smiles": "COc1ccc(CCNC(=O)c2c(-c3ccccc3Cl)noc2C)cc1", "displacement": -0.9}
